# The other results are listed elsewhere or left out.
# B1: PX14375C-bth-509-28-509 (Bacteroides thetaiotaomicron) (protein)
# chain: RSPQGQFTEDDNPNALVNGKIYNVYTMMRSFDITAGTPAIAIHYLRSEDSEKGSIPSDGSDVAEMYDDFLYTPTNGLLGSYWGKNYAIIYQCNDILDAIAEKETAGQTETEDIINKGEASFFRAYCYFNLVRAFGEVPLVTYKINDASEANIPKTTADKIYEQIDTDLKTAEESLPETWSTEYTGRLTWGAARSLHARTYMMRSDWDNMYKASTDVINKGLYNLKTPYNEIFTDDGENSGGSIFELQCTATAALPQSDVIGSQFCEVQGVRGAGQWDLGWGWHMATQLMADAYETGDPRKNATLLYFRKTDDEPITPENTNEPYGESPISPAMGAYFNKKAYTDPALRKEYTNKGFWVNIRLIRYSDVVLMAAEAANEKNIPGEAVDYLEMVRARARGTNTNILPKITTNDQGELREAIRHERRVELGLEPDRFYDLVRWGIASEVLHAAGKVNYQDKNALLPLPQSEIDKSKGVLVQNPDY
# Legend:
# Experiment in all cases: glycan array binding signal (z-score within array); higher = stronger binding
# Settings in all cases: glycan notation: IUPAC condensed, linker removed
# [1] = biological target: Fuc(a1-3)[Gal(b1-4)]GlcNAc(b1-3)Gal(b1-4)[Fuc(a1-3)]GlcNAc
# Summary of the method: (§1)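 Glycan array data came from 3228 arrays in the Consortium for Functional Glycomics database, and only arrays with an available protein sequence were kept. Glycan names were put into IUPAC-condensed notation, and columns mapping to the same glycan were averaged. The binding signal is a within-array Z-score, averaged across arrays of one protein sequence run at different concentrations or buffers and across linkers. A negative Z-score can be read as non-binding.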
# [2] = biological target: Fuc(a1-3)[Gal(b1-4)]GlcNAc(b1-3)Gal(b1-4)[Fuc(a1-3)]GlcNAc(b1-3)Gal(b1-4)[Fuc(a1-3)]GlcNAc
# Summary of the method: as §1
# [3] = biological target: Fuc(a1-3)[Gal(b1-4)]GlcNAc(b1-3)GalNAc
# Summary of the method: as §1
# [4] = biological target: Fuc(a1-3)[Gal(b1-4)]GlcNAc(b1-6)GalNAc
# Summary of the method: as §1
# [5] = biological target: Fuc(a1-3)[Gal(b1-4)]GlcNAc(b1-6)[Gal(b1-3)GlcNAc(b1-3)]Gal(b1-4)Glc
# Summary of the method: as §1
# [6] = biological target: Fuc(a1-3)[Gal(b1-4)]GlcNAc6S
# Summary of the method: as §1
# [7] = biological target: Fuc(a1-3)[Gal3S(b1-4)]Glc
# Summary of the method: as §1
# [8] = biological target: Fuc(a1-3)[Gal3S(b1-4)]GlcNAc
# Summary of the method: as §1
# [9] = biological target: Fuc(a1-3)[Gal3S(b1-4)]GlcNAc6S
# Summary of the method: as §1
# [10] = biological target: Fuc(a1-3)[GalNAc(b1-4)]GlcNAc
# Summary of the method: as §1
# [11] = biological target: Fuc(a1-3)[GalNAc(b1-4)]GlcNAc6S
# Summary of the method: as §1
# Fuc(a1-4)GlcNAc = biological target: Fuc(a1-4)GlcNAc
# Summary of the method: as §1
# Fuc(b1-3)GlcNAc = biological target: Fuc(b1-3)GlcNAc
# Summary of the method: as §1
# Gal(a1-2)Gal = biological target: Gal(a1-2)Gal
# Summary of the method: as §1
# Gal(a1-3)Gal = biological target: Gal(a1-3)Gal
# Summary of the method: as §1
# Gal(a1-3)Gal(b1-3)GlcNAc = biological target: Gal(a1-3)Gal(b1-3)GlcNAc
# Summary of the method: as §1
# [12] = biological target: Gal(a1-3)Gal(b1-3)GlcNAc(b1-2)Man
# Summary of the method: as §1
# [13] = biological target: Gal(a1-3)Gal(b1-3)GlcNAc(b1-2)Man(a1-3)[Gal(a1-3)Gal(b1-3)GlcNAc(b1-2)Man(a1-6)]Man(b1-4)GlcNAc(b1-4)GlcNAc
# Summary of the method: as §1
# [14] = biological target: Gal(a1-3)Gal(b1-3)GlcNAc(b1-3)GalNAc
# Summary of the method: as §1
# [15] = biological target: Gal(a1-3)Gal(b1-3)GlcNAc(b1-6)GalNAc
# Summary of the method: as §1
# [16] = biological target: Gal(a1-3)Gal(b1-3)[Fuc(a1-4)]GlcNAc(b1-2)Man(a1-3)[Gal(a1-3)Gal(b1-3)[Fuc(a1-4)]GlcNAc(b1-2)Man(a1-6)]Man(b1-4)GlcNAc(b1-4)GlcNAc
# Summary of the method: as §1
# Gal(a1-3)Gal(b1-4)Glc = biological target: Gal(a1-3)Gal(b1-4)Glc
# Summary of the method: as §1
# Gal(a1-3)Gal(b1-4)GlcNAc = biological target: Gal(a1-3)Gal(b1-4)GlcNAc
# Summary of the method: as §1
# [17] = biological target: Gal(a1-3)Gal(b1-4)GlcNAc(b1-2)Man
# Summary of the method: as §1
# [18] = biological target: Gal(a1-3)Gal(b1-4)GlcNAc(b1-2)Man(a1-3)[Gal(a1-3)Gal(b1-4)GlcNAc(b1-2)Man(a1-6)]Man(b1-4)GlcNAc(b1-4)GlcNAc
# Summary of the method: as §1
# [19] = biological target: Gal(a1-3)Gal(b1-4)GlcNAc(b1-3)GalNAc
# Summary of the method: as §1
# [20] = biological target: Gal(a1-3)Gal(b1-4)GlcNAc(b1-6)GalNAc
# Summary of the method: as §1
# [21] = biological target: Gal(a1-3)Gal(b1-4)[Fuc(a1-3)]GlcNAc
# Summary of the method: as §1
# [22] = biological target: Gal(a1-3)Gal(b1-4)[Fuc(a1-3)]GlcNAc(b1-2)Man(a1-3)[Gal(a1-3)Gal(b1-4)[Fuc(a1-3)]GlcNAc(b1-2)Man(a1-6)]Man(b1-4)GlcNAc(b1-4)GlcNAc
# Summary of the method: as §1
# Gal(a1-3)GalNAc = biological target: Gal(a1-3)GalNAc
# Summary of the method: as §1
# [23] = biological target: Gal(a1-3)[Gal(a1-4)]Gal(b1-4)GlcNAc
# Summary of the method: as §1
# [24] = biological target: Gal(a1-4)Gal(b1-3)GlcNAc(b1-2)Man(a1-3)[Gal(a1-4)Gal(b1-3)GlcNAc(b1-2)Man(a1-6)]Man(b1-4)GlcNAc(b1-4)GlcNAc
# Summary of the method: as §1
# Gal(a1-4)Gal(b1-4)Glc = biological target: Gal(a1-4)Gal(b1-4)Glc
# Summary of the method: as §1
# Gal(a1-4)Gal(b1-4)GlcNAc = biological target: Gal(a1-4)Gal(b1-4)GlcNAc
# Summary of the method: as §1
# [25] = biological target: Gal(a1-4)Gal(b1-4)GlcNAc(b1-2)Man(a1-3)[Gal(a1-4)Gal(b1-4)GlcNAc(b1-2)Man(a1-6)]Man(b1-4)GlcNAc(b1-4)GlcNAc
# Summary of the method: as §1
# [26] = biological target: Gal(a1-4)Gal(b1-4)GlcNAc(b1-3)Gal(b1-4)Glc
# Summary of the method: as §1
# Gal(a1-4)GlcNAc = biological target: Gal(a1-4)GlcNAc
# Summary of the method: as §1
# Gal(a1-6)Glc = biological target: Gal(a1-6)Glc
# Summary of the method: as §1
binder,measurement,setting,value
B1,glycan array binding signal (z-score),[1],-0.101
same,glycan array binding signal (z-score),[2],-0.164
same,glycan array binding signal (z-score),[3],-0.155
same,glycan array binding signal (z-score),[4],0.097
same,glycan array binding signal (z-score),[5],-0.515
same,glycan array binding signal (z-score),[6],-0.275
same,glycan array binding signal (z-score),[7],-0.391
same,glycan array binding signal (z-score),[8],-0.186
same,glycan array binding signal (z-score),[9],-0.332
same,glycan array binding signal (z-score),[10],0.429
same,glycan array binding signal (z-score),[11],-0.401
same,glycan array binding signal (z-score),Fuc(a1-4)GlcNAc,-0.417
same,glycan array binding signal (z-score),Fuc(b1-3)GlcNAc,-0.313
same,glycan array binding signal (z-score),Gal(a1-2)Gal,0.105
same,glycan array binding signal (z-score),Gal(a1-3)Gal,-0.148
same,glycan array binding signal (z-score),Gal(a1-3)Gal(b1-3)GlcNAc,-0.256
same,glycan array binding signal (z-score),[12],-0.429
same,glycan array binding signal (z-score),[13],0.935
same,glycan array binding signal (z-score),[14],-0.344
same,glycan array binding signal (z-score),[15],-0.364
same,glycan array binding signal (z-score),[16],-0.273
same,glycan array binding signal (z-score),Gal(a1-3)Gal(b1-4)Glc,-0.196
same,glycan array binding signal (z-score),Gal(a1-3)Gal(b1-4)GlcNAc,1.17
same,glycan array binding signal (z-score),[17],-0.161
same,glycan array binding signal (z-score),[18],0.762
same,glycan array binding signal (z-score),[19],-0.308
same,glycan array binding signal (z-score),[20],0.233
same,glycan array binding signal (z-score),[21],-0.395
same,glycan array binding signal (z-score),[22],1.41
same,glycan array binding signal (z-score),Gal(a1-3)GalNAc,-0.254
same,glycan array binding signal (z-score),[23],2.55
same,glycan array binding signal (z-score),[24],0.917
same,glycan array binding signal (z-score),Gal(a1-4)Gal(b1-4)Glc,0.081
same,glycan array binding signal (z-score),Gal(a1-4)Gal(b1-4)GlcNAc,0.016
same,glycan array binding signal (z-score),[25],-0.374
same,glycan array binding signal (z-score),[26],-0.341
same,glycan array binding signal (z-score),Gal(a1-4)GlcNAc,-0.193
same,glycan array binding signal (z-score),Gal(a1-6)Glc,-0.3

# From the supplement of paper PMC8728848
